Values of other authors as cited in US20230332203A1, “RAPID ANTIBIOTIC SUSCEPTIBILITY TESTING” (IOWA STATE UNIVERSITY RESEARCH FOUNDATION, INC., priority 2022, published 2023).

Test system: E. coli MG1655 (MG, susceptible to ciprofloxacin)
Details: cited from earlier work

For O=C(O)c1cn(C2CC2)c2cc(N3CCNCC3)c(F)cc2c1=O [ciprofloxacin], the “previously recorded MIC obtained from broth dilution” value is given as 0.078 µg/mL.
